Test results published in paper PMC10003087, “VRK1 Kinase Activity Modulating Histone H4K16 Acetylation Inhibited by SIRT2 and VRK-IN-1” (International Journal of Molecular Sciences, 2023).
Residue numbers refer to the chain shown, from its start. These are yes or no findings as the source states them, for the method shown. For part of these data: Binding seen in cells or lysates may run through a third protein. Some results given as binding are weak or reduced against the parent protein; the word gives no strength. Sequences can lack the tags named with a protein.

Key:
[1] = target: T1, SIRT2-Flag (human) (UniProt Q8IXJ6); assay: co-IP; HEK293T lysates (50 mM Tris HCl pH 8.0, 150 mM NaCl, 1% triton X-100, 1 mM EDTA), 0.5-1 mg protein, antibody 6-8 h at 4 °C, Protein G-agarose overnight; reciprocal immunoprecipitations (anti-VRK1, anti-FLAG, anti-HA)
T1 sequence: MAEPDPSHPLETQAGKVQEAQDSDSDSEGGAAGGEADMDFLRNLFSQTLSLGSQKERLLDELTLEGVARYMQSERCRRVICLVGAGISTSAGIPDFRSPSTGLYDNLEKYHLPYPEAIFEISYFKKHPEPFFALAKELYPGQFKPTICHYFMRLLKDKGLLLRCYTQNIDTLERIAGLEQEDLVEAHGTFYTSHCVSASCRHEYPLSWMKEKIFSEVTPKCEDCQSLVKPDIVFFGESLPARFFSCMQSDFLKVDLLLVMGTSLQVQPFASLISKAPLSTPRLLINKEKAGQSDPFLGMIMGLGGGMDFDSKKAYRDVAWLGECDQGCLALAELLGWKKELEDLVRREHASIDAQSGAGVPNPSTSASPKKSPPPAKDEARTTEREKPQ

[2] = target: T2, SIRT2-HA with S368 mutated to Glu (human) (UniProt Q8IXJ6); assay: as above
T2 sequence: T1 sequence with S368E

[3] = target: T3, SIRT2-HA with S368 mutated to Ala (human) (UniProt Q8IXJ6); assay: as above
T3 sequence: T1 sequence with S368A

[4] = target: T4, endogenous VRK1 (human (endogenous in HEK293T)) (UniProt Q99986); assay: as above
T4 sequence: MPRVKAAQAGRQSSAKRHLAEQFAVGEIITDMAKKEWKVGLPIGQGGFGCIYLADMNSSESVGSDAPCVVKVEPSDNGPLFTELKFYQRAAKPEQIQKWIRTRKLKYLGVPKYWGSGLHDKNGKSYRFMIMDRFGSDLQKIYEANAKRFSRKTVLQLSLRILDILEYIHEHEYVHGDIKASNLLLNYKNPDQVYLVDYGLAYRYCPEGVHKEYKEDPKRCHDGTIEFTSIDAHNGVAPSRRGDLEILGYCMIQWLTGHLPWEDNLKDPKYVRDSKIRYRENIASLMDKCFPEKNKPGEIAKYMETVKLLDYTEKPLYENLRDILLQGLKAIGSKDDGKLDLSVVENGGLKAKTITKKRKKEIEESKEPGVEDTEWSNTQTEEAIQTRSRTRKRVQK

[5] = target: T5, VRK1-HA (human) (UniProt Q99986); assay: as above
T5 sequence: T4 sequence

[6] = target: T6, GST-VRK1 C-terminal regulatory domain (residues 267-396) (human) (UniProt Q99986); assay: pull-down; GST pull-down; purified GST-VRK1 (or GST-VRK1 constructs) and His-SIRT2 in 20 mM Tris-HCl pH 7.5, 5 mM MgCl2, 0.5 mM DTT, 150 mM KCl, 25 µL, 37 °C 45 min, then Glutathione Sepharose 4B beads overnight at 4 °C; increasing amounts of His-SIRT2; both purified
T6 sequence: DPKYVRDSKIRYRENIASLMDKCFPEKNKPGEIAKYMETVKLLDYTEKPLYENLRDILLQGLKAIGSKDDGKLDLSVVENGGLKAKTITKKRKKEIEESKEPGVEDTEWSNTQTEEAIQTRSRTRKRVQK

B1: endogenous VRK1 (enzyme, UniProt Q99986 1-396)
chain: T4 sequence
**Q.** For B1, which binding [1] is on record?
**A.** binds

**Q.** And the binding [2]?
**A.** binds

**Q.** What about the binding [3] of the same binder?
**A.** binds

B2: SIRT2-Flag (enzyme, UniProt Q8IXJ6 1-389)
chain: T1 sequence
**Q.** How did the binding [4] turn out when B2 was run?
**A.** binds

**Q.** And the binding [5]?
**A.** binds

B3: VRK1-HA (enzyme, UniProt Q99986 1-396)
chain: T4 sequence
**Q.** Which binding [1] does the source give for B3 here?
**A.** binds

B4: SIRT2-HA with S368 mutated to Ala (enzyme, UniProt Q8IXJ6 1-389)
chain: T1 sequence with S368A
**Q.** How did the binding [4] turn out when B4 was run?
**A.** binds

B5: SIRT2-HA with S368 mutated to Glu (enzyme, UniProt Q8IXJ6 1-389)
chain: T1 sequence with S368E
**Q.** B5 was tested. Which binding [4] did it give?
**A.** binds

B6: SIRT2-his (enzyme, human, UniProt Q8IXJ6 1-389, looked up)
chain: T1 sequence
**Q.** Which binding [6] does the source give for B6 here?
**A.** no binding
